# According to patent publication US20240076343A1 (CEPHALON, published 2024):
# T1: intermediate-affinity hIL-2 receptor (IL-2Rβγ) on TF1+IL-2Rβ cells (human, UniProt P14784 27-551; P31785 23-369)
# T1 sequence 1: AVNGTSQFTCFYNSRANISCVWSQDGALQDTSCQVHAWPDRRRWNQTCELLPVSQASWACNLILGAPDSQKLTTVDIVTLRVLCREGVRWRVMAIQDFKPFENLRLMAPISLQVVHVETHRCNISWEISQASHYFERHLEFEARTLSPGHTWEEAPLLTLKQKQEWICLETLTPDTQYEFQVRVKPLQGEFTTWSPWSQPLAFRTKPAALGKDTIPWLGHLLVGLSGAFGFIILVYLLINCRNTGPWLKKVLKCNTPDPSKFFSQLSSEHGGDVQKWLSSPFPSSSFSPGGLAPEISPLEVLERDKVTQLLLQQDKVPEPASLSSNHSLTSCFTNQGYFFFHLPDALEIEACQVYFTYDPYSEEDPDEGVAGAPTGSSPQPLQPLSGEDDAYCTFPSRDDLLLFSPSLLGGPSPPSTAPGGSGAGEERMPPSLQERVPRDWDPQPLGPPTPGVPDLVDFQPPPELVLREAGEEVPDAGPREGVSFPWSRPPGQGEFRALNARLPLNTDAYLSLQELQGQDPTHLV
# T1 sequence 2: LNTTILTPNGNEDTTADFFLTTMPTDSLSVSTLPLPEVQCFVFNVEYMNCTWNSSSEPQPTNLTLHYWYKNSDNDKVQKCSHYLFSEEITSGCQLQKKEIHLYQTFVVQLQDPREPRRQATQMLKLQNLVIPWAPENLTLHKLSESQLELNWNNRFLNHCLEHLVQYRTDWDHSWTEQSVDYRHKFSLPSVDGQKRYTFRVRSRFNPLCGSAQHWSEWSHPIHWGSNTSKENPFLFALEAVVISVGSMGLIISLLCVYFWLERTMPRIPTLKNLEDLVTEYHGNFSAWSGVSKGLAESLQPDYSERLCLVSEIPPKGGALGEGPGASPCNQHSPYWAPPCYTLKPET
# T2: high-affinity hIL-2 receptor (IL-2Rαβγ) on NK-92 cells (human, UniProt P01589 22-272; P14784 27-551; P31785 23-369)
# T2 sequence 1: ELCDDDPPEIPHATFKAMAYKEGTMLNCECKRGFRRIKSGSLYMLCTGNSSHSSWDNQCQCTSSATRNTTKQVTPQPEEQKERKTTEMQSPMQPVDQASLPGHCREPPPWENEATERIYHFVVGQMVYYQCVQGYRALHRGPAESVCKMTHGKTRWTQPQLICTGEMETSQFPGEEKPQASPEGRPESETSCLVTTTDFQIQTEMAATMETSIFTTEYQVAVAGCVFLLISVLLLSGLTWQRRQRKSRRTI
# T2 sequence 2: T1 sequence 1
# T2 sequence 3: T1 sequence 2
# B1: 2H7-hIgG4-LE-df-hIL-2 (T3A/R38E/I92K/C125A) (other)
# heavy: EVQLLESGGGLVQPGGSLRLSCAASGFTFKDYCMTWVRQAPGKGLEWVSAIVYSGGSTYYADSVKGRFTISRDNSKNTLYLQMNNLRAEDTAVYYCAKYTRASYFYDAMDVWGQGTTVTVSSASTKGPSVFPLAPCSRSTSESTAALGCLVKDYFPEPVTVSWNSGALTSGVHTFPAVLQSSGLYSLSSVVTVPSSSLGTKTYTCNVDHKPSNTKVDKRV[not shown - human IgG4 Fc with changes]APASSSTKKTQLQLEHLLLDLQMILNGINNYKNPKLTEMLTFKFYMPKKATELKHLQCLEEELKPLEEVLNLAQSKNFHLRPRDLISNINVKVLELKGSETTFMCEYADETATIVEFLNRWITFAQSIISTLT
# light: EIVLTQSPGTLSLSPGERATLSCRASQSIGKSFLAWYQQKPGQAPRLLIYDASTRAADIPARFSGSGSGTDFTLTISSLEPEDFAVYYCQQYYDWPPLSFGGGTKVEIKRTVAAPSVFIFPPSDEQLKSGTASVVCLLNNFYPREAKVQWKVDNALQSGNSQESVTEQDSKDSTYSLSSTLTLSKADYEKHKVYACEVTHQGLSSPVTKSFNRGEC
# notes: antibody-hIL-2 fusion; also called hIgG4-LE-hIL-2 (T3A/R38E/192K/C125A)
# B2: 2H7-hIgG4-LAGA-df-hIL-2 (T3A/R38E/I92K/C125A) (other)
# heavy: EVQLLESGGGLVQPGGSLRLSCAASGFTFKDYCMTWVRQAPGKGLEWVSAIVYSGGSTYYADSVKGRFTISRDNSKNTLYLQMNNLRAEDTAVYYCAKYTRASYFYDAMDVWGQGTTVTVSSASTKGPSVFPLAPCSRSTSESTAALGCLVKDYFPEPVTVSWNSGALTSGVHTFPAVLQSSGLYSLSSVVTVPSSSLGTKTYTCNVDHKPSNTKVDKRV[not shown - human IgG4 Fc with S228P L235A G237A (EU numbers)]APASSSTKKTQLQLEHLLLDLQMILNGINNYKNPKLTEMLTFKFYMPKKATELKHLQCLEEELKPLEEVLNLAQSKNFHLRPRDLISNINVKVLELKGSETTFMCEYADETATIVEFLNRWITFAQSIISTLT
# light: B1 light
# notes: antibody-hIL-2 fusion; also called 2H7-hIgG4-LAGA-hIL-2 (T3A/R38E/192K/C125A)
# B3: 2H7-hIgG4-LE-df-hIL-2 (T3A/D20A/R38E/C125A) (other)
# heavy: EVQLLESGGGLVQPGGSLRLSCAASGFTFKDYCMTWVRQAPGKGLEWVSAIVYSGGSTYYADSVKGRFTISRDNSKNTLYLQMNNLRAEDTAVYYCAKYTRASYFYDAMDVWGQGTTVTVSSASTKGPSVFPLAPCSRSTSESTAALGCLVKDYFPEPVTVSWNSGALTSGVHTFPAVLQSSGLYSLSSVVTVPSSSLGTKTYTCNVDHKPSNTKVDKRV[not shown - human IgG4 Fc with changes]APASSSTKKTQLQLEHLLLALQMILNGINNYKNPKLTEMLTFKFYMPKKATELKHLQCLEEELKPLEEVLNLAQSKNFHLRPRDLISNINVIVLELKGSETTFMCEYADETATIVEFLNRWITFAQSIISTLT
# light: B1 light
# notes: antibody-hIL-2 fusion; also called 2H7-hIgG4-LE-hIL-2 (T3A/D20A/R38E/C125A)
# B4: 2H7-hIgG1-LAGA-df-hIL-2 (T3A/R38E/I92K/C125A) (other)
# heavy: EVQLLESGGGLVQPGGSLRLSCAASGFTFKDYCMTWVRQAPGKGLEWVSAIVYSGGSTYYADSVKGRFTISRDNSKNTLYLQMNNLRAEDTAVYYCAKYTRASYFYDAMDVWGQGTTVTVSS[not shown - human IgG1 constant region with L235A G237A (EU numbers)]APASSSTKKTQLQLEHLLLDLQMILNGINNYKNPKLTEMLTFKFYMPKKATELKHLQCLEEELKPLEEVLNLAQSKNFHLRPRDLISNINVKVLELKGSETTFMCEYADETATIVEFLNRWITFAQSIISTLT
# light: B1 light
# notes: antibody-hIL-2 fusion; also called 2H7-hIgG1-LAGA-hIL-2 (T3A/R38E/192K/C125A)
# B5: 2H7-hIgG4-LE-df-hIL-2 (T3A/R38E/D84K/C125A) (other)
# heavy: EVQLLESGGGLVQPGGSLRLSCAASGFTFKDYCMTWVRQAPGKGLEWVSAIVYSGGSTYYADSVKGRFTISRDNSKNTLYLQMNNLRAEDTAVYYCAKYTRASYFYDAMDVWGQGTTVTVSSASTKGPSVFPLAPCSRSTSESTAALGCLVKDYFPEPVTVSWNSGALTSGVHTFPAVLQSSGLYSLSSVVTVPSSSLGTKTYTCNVDHKPSNTKVDKRV[not shown - human IgG4 Fc with changes]APASSSTKKTQLQLEHLLLDLQMILNGINNYKNPKLTEMLTFKFYMPKKATELKHLQCLEEELKPLEEVLNLAQSKNFHLRPRKLISNINVIVLELKGSETTFMCEYADETATIVEFLNRWITFAQSIISTLT
# light: B1 light
# notes: antibody-hIL-2 fusion; also called 2H7-hIgG4-LE-hIL-2 (T3A/R38E/D84K/C125A)
# B6: 2H7-hIgG4-LAGA-df-hIL-2 (T3A/R38E/D84K/C125A) (other)
# heavy: EVQLLESGGGLVQPGGSLRLSCAASGFTFKDYCMTWVRQAPGKGLEWVSAIVYSGGSTYYADSVKGRFTISRDNSKNTLYLQMNNLRAEDTAVYYCAKYTRASYFYDAMDVWGQGTTVTVSSASTKGPSVFPLAPCSRSTSESTAALGCLVKDYFPEPVTVSWNSGALTSGVHTFPAVLQSSGLYSLSSVVTVPSSSLGTKTYTCNVDHKPSNTKVDKRV[not shown - human IgG4 Fc with S228P L235A G237A (EU numbers)]APASSSTKKTQLQLEHLLLDLQMILNGINNYKNPKLTEMLTFKFYMPKKATELKHLQCLEEELKPLEEVLNLAQSKNFHLRPRKLISNINVIVLELKGSETTFMCEYADETATIVEFLNRWITFAQSIISTLT
# light: B1 light
# notes: antibody-hIL-2 fusion
# Target: T1, intermediate-affinity hIL-2 receptor …
# Assay: cell-based or functional assay
row,Fold decrease from rhIL-2 (TF1 + IL-2Rβ + hPD-1),Binder
1,~1 fold,B1
2,~1 fold,B2

# Target: T3, recombinant His-tagged cynomolgus PD-1 (Acro Biosystems) (cynomolgus, UniProt B0LAJ3 25-170)
# T3 construct: His-tagged; also called Cyno PD-1; not shown: His tag (and any linker) of the Acro Biosystems product
# Assay: SPR Carterra LSA;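 note: antibodies or fusion proteins amine-coupled on an HC30M chip, soluble His-tagged human or cynomolgus PD-1 titrated over them, non-regenerative kinetics, constants fitted from titration curves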
# T3 sequence (B0LAJ3 entry or part of it limits assumed): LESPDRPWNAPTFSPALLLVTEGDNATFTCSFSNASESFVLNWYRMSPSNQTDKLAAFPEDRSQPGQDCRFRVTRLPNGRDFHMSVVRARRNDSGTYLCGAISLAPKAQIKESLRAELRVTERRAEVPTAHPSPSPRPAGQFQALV
Kd,koff,kon,Binder
11 nM,0.001 s⁻¹,90000 M⁻¹ s⁻¹,B3
11 nM,0.00097 s⁻¹,91000 M⁻¹ s⁻¹,B4
8.2 nM,0.0011 s⁻¹,130000 M⁻¹ s⁻¹,B5
13 nM,0.001 s⁻¹,81000 M⁻¹ s⁻¹,B6
12 nM,0.0011 s⁻¹,95000 M⁻¹ s⁻¹,B1
11 nM,0.0011 s⁻¹,100000 M⁻¹ s⁻¹,B2

# Target: T4, recombinant His-tagged human PD-1 (Acro Biosystems) (human, UniProt Q15116 partial chain)
# T4 construct: His-tagged; also called hPD-1
# Assay: SPR Carterra LSA;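 note: antibodies or fusion proteins amine-coupled on an HC30M chip, soluble His-tagged human or cynomolgus PD-1 titrated over them, non-regenerative kinetics, constants fitted from titration curves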
# T4 sequence (Q15116 25-167 limits assumed): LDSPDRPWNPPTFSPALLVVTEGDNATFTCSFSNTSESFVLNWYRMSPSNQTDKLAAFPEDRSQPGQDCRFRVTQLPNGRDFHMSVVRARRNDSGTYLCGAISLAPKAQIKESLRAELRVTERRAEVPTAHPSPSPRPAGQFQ
Kd,koff,kon,Binder
4.3 nM,0.00081 s⁻¹,190000 M⁻¹ s⁻¹,B3
4.3 nM,0.00078 s⁻¹,180000 M⁻¹ s⁻¹,B4
4.7 nM,0.00094 s⁻¹,200000 M⁻¹ s⁻¹,B5
4.4 nM,0.00073 s⁻¹,170000 M⁻¹ s⁻¹,B6
4.7 nM,0.00088 s⁻¹,190000 M⁻¹ s⁻¹,B1
3.7 nM,0.00082 s⁻¹,220000 M⁻¹ s⁻¹,B2

# Target: T2, high-affinity hIL-2 receptor (IL-2Rαβγ) …
# Assay: cell-based or functional assay
Fold change from rhIL-2 (NK-92),Agonistic Activity (NK-92),Binder
> 10000 fold,,B3
,90%,B5

# Target: T1, intermediate-affinity hIL-2 receptor …
# Assay: cell-based or functional assay
# Remark: another data set of the same source
row,Fold change from rhIL-2 (TF1 + IL-2Rβ),Binder
1,> 10000 fold,B3
